The full ranking holds about 110,000 compounds; the median of “z-score” is about -0.1, and the highest 2% start at about 2. This is one part of the list. Active and inactive are the calls of the source.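 How the source made its calls: active means z-score in the third read window above 3 or below -3; inactive means the rest.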
These compounds were tested against Metabotropic glutamate receptor 8 (Rattus norvegicus) (UniProt P70579) (assay: mGluR8 Gi/Go-coupled signaling modulation – cell-based, rat, thallium flux, HTS, primary screen (AID 488969)). Settings: HEK293 rat mGluR8, GIRK (G protein-gated inwardly rectifying potassium channel) thallium flux, FluoZin2; at 10 µM; stronger effect = higher value; submaximal glutamate (EC20) added with thallium.
Sequence of UniProt P70579 (P70579 whole entry, looked up): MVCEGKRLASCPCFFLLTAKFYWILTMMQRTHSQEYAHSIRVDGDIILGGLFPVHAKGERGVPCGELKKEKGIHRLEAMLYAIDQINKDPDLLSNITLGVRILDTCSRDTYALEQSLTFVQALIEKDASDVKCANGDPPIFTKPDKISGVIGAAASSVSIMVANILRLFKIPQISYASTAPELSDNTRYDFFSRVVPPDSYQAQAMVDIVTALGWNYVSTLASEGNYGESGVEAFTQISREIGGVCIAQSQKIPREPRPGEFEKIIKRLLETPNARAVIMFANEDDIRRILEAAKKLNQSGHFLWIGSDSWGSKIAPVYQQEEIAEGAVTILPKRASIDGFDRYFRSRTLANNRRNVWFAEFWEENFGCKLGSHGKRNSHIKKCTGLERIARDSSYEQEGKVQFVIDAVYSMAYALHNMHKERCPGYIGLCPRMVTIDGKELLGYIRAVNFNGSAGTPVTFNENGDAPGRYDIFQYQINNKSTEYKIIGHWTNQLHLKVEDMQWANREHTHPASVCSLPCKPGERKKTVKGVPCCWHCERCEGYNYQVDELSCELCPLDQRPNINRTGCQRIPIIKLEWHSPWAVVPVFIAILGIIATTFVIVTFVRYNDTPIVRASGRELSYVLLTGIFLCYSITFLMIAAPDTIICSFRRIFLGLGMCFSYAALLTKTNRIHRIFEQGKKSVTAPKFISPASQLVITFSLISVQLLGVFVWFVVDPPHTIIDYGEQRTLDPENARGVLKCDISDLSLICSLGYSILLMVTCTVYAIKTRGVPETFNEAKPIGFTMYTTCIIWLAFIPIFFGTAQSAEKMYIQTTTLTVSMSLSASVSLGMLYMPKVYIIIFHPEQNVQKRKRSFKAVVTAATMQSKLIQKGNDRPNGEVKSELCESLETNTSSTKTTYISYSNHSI

SMILES	z-score
Cc1csc(NC(=O)CSc2nnc3c4ccccc4nc(C(C)(C)C)n23)n1	0.904
O=C(Nc1ccc(-n2cnnn2)cc1)C1CCCCC1	-0.644
Cc1cccc(-n2c(C)n[nH]c2=S)c1C	-0.0967
CCCCCCn1c(COc2ccccc2F)nnc1SCC(=O)N1c2ccccc2NC(=O)C1(C)C	-0.0453
COCCCNC(=S)Nc1ccc(CC(=O)O)cc1	-0.00852
Cc1ccc(C(=O)CSc2nc(C)cc(=O)[nH]2)cc1	-0.183
Cc1cc(C)nc(N/N=C/c2ccccc2OCc2cccc(Br)c2)n1	-0.027
CC(C)(C)c1csc(NC(=O)c2cccs2)n1	-0.739
COc1ccc(/C(N)=N/OC(=O)c2cccc([N+](=O)[O-])c2)cc1	-0.162
Cc1cc2n(n1)C(c1sccc1C)Nc1ccccc1-2 (stereo not given)	-1.74
OC1(c2ccccc2)CCN(Cc2ccccc2)C2CCCCC21 (stereo not given)	0.483
CCN(CCNC(=O)C1CCCN(S(=O)(=O)c2cnc[nH]2)C1)c1ccccc1 (stereo not given)	-0.161
COCCNC(=O)C(C)OC(=O)c1cc2sccc2n1C (stereo not given)	0.0756
CC(=O)/C(=N\Nc1ccccc1)Sc1nncn1C	-0.337
Nc1ccc2nc(-c3cccnc3)[nH]c2c1	-0.156
CCOC(=O)N1CCN(C(=O)Cc2cccs2)CC1	-1.64
O=C(OCc1cccc2ccccc12)C1CC(=O)N(c2ccccc2)C1 (stereo not given)	0.0322
COc1ccc(-n2nnnc2SCC(=O)N2CCOCC2)cc1	active: 3.28
CCCC(=O)c1ccc(N2CCN(S(=O)(=O)c3ccc(C)cc3)CC2)c(F)c1	-0.45
Cn1c(CN2CCCCC2)nc2cc(NC(=O)c3cccc(Br)c3)ccc21	-0.283
COc1ccc(CCNC(=O)C(=O)NCCOc2ccccc2)cc1OC	-0.451
CCOc1cc(/C=C(\C#N)c2[nH]nc(N)c2C#N)ccc1O	-1.75
COc1cccc(NC(=O)Nc2ccc3c(c2)nnn3C)c1	-0.0198

SMILES	z-score
Cc1cccc2c(=O)oc(-c3ccc4c(c3)C(=O)N(CC3CCCO3)C4=O)nc12 (stereo not given)	0.679
Cn1c(=O)n(C)c2cc(/C=N/NC(=O)c3ccc(Cl)cc3Cl)ccc21	-0.00337
CC(C)(C)C(=O)c1cn(CC(=O)NCc2ccc3c(c2)OCO3)c2ccccc12	-0.846
CCCCCN1CSC(=S)N(Cc2ccccc2)C1	0.119
Cc1ccc(C2C3=C(CC(C)(C)CC3=O)Nc3n[nH]c(C)c32)cc1 (stereo not given)	-2.16
COc1ccc(OC)c(S(=O)(=O)N2CCC(C(=O)NCCc3ccccc3)CC2)c1	-0.277
Cc1ccc(NC(=O)Nc2ccc(Cl)cc2)c(Br)c1	-0.158
CCCCCCCN1N=C(C)C(C(=O)c2ccccc2)C1=O (stereo not given)	0.706
Cc1ccc(C(=C2C3C=CC2C2C(=O)NC(=O)C32)c2ccc(C)cc2)cc1 (stereo not given)	0.145
CC1CC(Nc2cccc(O)c2)=CC(=O)O1 (stereo not given)	-0.0768
O=C(NCCCn1ccnc1)c1ccncc1	0.28
Cc1ccc(C)c(OCC(=O)Nc2c[nH]c(=O)[nH]c2=O)c1	-0.385
Cc1c(/C=N/n2cnnc2)c2ccccc2n1CCOc1ccc(Cl)cc1	1.24
COc1ccc(NC(=O)CSc2c3c(nc4cc(Cl)ccc24)CCCC3)cc1OC	-0.431
CC1=C/C(=N\OS(=O)(=O)c2ccccc2)C(C)=CC1=O	-0.189
Cc1ccc2cccc(Oc3nnnn3-c3ccccc3)c2n1	-1.1
CC(C)NC(=O)CCCc1ccccc1	0.16
CCn1c(=O)cc(OCC(=O)O)c2ccccc21	-0.648
CCOC(=O)c1sc2nc(N3CCOCC3)c3c(c2c1N)CCN(Cc1ccccc1)C3	-0.00385
COc1ccc(CCNC(=O)c2cnn3cccnc23)cc1OC	0.347
COc1ccc(N(CC(=O)NC2CCCCC2)C(=O)CNC(=O)c2ccco2)c(OC)c1	0.0458
CN(C)c1nc(N)nc(CSc2ccccn2)n1	-0.0325
O=C(Nc1nnc(CCN2CCOCC2)s1)C1CCCCC1	0.399

SMILES	z-score
N#CC(C#N)=Cc1cn(-c2ncc(C(F)(F)F)cc2Cl)c2ccccc12	-0.121
Cc1nc2ccc(S(=O)(=O)NC(C(=O)N3CCC(C)CC3)C(C)C)cc2s1 (stereo not given)	-0.133
CC1CCC2C(C1)c1sc(=O)[nH]c1SC2(C)C (stereo not given)	-0.236
CCOc1ccc(OCCCCNCCN)cc1	0.0466
Cc1cccc(C(=O)Nc2cccc(-c3cnc4ccccc4n3)c2)c1	-0.165
Cc1ccc(NC(=O)CN2CCC3(O)CCCCC3C2c2ccc3c(c2)OCO3)c(C)c1 (stereo not given)	-0.00759
COc1ccc(N2C(=O)CC(Sc3ncccc3C(=O)O)C2=O)cc1 (stereo not given)	-0.341
CCN(CC(=O)Nc1ccc2c(c1)OCCO2)Cc1cc(=O)oc2cc(C)c(C)cc12	-0.025
O=C(Nc1cc(Sc2ccccn2)cc([N+](=O)[O-])c1)c1ccc([N+](=O)[O-])cc1	-0.0668
COc1cccc(CC(NC(C)=O)C(=O)NC2CCN(c3c4c(nc5ncnn35)CCC4)CC2)c1 (stereo not given)	0.172
O=C(Nc1ccccc1F)c1ccco1	0.262
O=C(C1CCCN(Cc2cccs2)C1)N1CCCCCC1 (stereo not given)	active: 3.36
Cc1ccc(C(=O)Cn2c(N3CCOCC3)nc3c2c(=O)n(C)c(=O)n3C)cc1	-0.383
COc1cc(C(=O)N2CCC(O)(c3ccccc3)CC2)cc(OC)c1OC	-0.228
Cc1ccc(-n2c(C)cc(/C=N/NC(=O)c3ccncc3)c2C)cc1	-0.0402
Cc1cc(C=O)c(C)n1-c1ccc(N2CCOCC2)cc1	-0.0678
CC(C)(C)CC(C)(C)c1ccc(O)c(CN2CCN(CCC#N)CC2)c1	-0.108
O=C1c2ccccc2C(=O)N1c1ccc(Cl)cc1	0.445
COC(=O)c1ccc(NS(=O)(=O)c2cccc3cccnc23)cc1	0.0976
O=C(Nc1nnc(SCC(=O)N2CCCc3ccccc32)s1)c1ccc2ccccc2c1	0.456
Cn1cc2c(=O)n(/N=C/c3ccccc3)cnc2n1	0.198
COc1ccc(/C=C2/CCOC2=O)cc1	-0.233
CCCCN(CC)C(=O)/C=C/c1cccc([N+](=O)[O-])c1	-0.405

SMILES	z-score
Fc1cccc2sc(Nc3nnc(-c4ccco4)o3)nc12	active: 16
CN(c1ccccc1C(=O)Nc1cccc([N+](=O)[O-])c1)S(C)(=O)=O	-0.567
Cc1cccc(C)c1OCC(O)CN1CCC(CN2C(=O)c3cccc4cccc(c34)C2=O)CC1 (stereo not given)	2.99
O=C(Nc1ccc2c(c1)CCC2)c1cc2ccccc2o1	1.94
CN1c2ccccc2C2(C)CCCC3=Cc4cccc([N+](=O)[O-])c4OC312 (stereo not given)	-0.263
Cc1ccc2nc(NC(=O)Cc3cccs3)sc2c1	0.542
Nc1ccc(Oc2ccc(Br)cc2)cc1	-0.138
COc1ccc(/C(=N/O)C(C)(C)NO)cc1	-0.376
CCOC(=O)c1ccc(NC(=O)CSc2nnc(C3CCCCC3)n2C)cc1	-0.185
Nc1ncc(Br)cc1N=Cc1ccccc1	-0.0897
COc1ccc(NC(=S)Nc2ccc(OCc3ccccc3)cc2)c(OC)c1	-0.139
CCC(Oc1ccccc1)C(=O)Nc1ccc(S(=O)(=O)Nc2cnc3ccccc3n2)cc1 (stereo not given)	-0.155
CC(=O)Nc1ccc2c(c1)nc1n2CCOC1	0.059
O=C(CSc1nnc(-c2ccccc2)n1Cc1ccco1)NCc1ccc2c(c1)OCO2	-0.695
O=C(Nc1ccc(N2CCOCC2)cc1)Nc1cnsn1	-0.053
O=C(CC(=O)N/N=C\c1cccc(Cl)c1Cl)NCc1ccccc1	-0.0129
C=CCN1C(=O)C(Cc2cccc(Cl)c2)S/C1=N/N=C/c1ccco1 (stereo not given)	-0.0843
COc1cc(C)nc(Oc2ccc(=O)n(C)n2)n1	-0.196
O=C(/C=C/c1ccc(Cl)c(Cl)c1)n1cccn1	-0.323
COc1ccc(-n2c(SC)nc(O)c(Cc3ccccc3)c2=O)cc1	-0.0522
Cc1ccc(C(=O)NCc2nnc(SCC(=O)Nc3ccccc3)n2C)cc1	-0.213
O=C(Nc1ccccc1C(=O)N1CCOCC1)C1CCC(=O)N1C1CCCC1 (stereo not given)	-0.137
CC1(C)CC(=O)C2=C(C1)OC1=C(C(=O)CC(C)(C)C1)C2c1ccc(O)cc1O	0.379

SMILES	z-score
Clc1ccc(COn2nnc3ccccc32)c(Cl)c1	-0.471
OCCNc1nc2ccccc2[nH]1	-0.292
COC(=O)c1cc(=O)n(Cc2ccc(OC)c(OC)c2)c(=Nc2ccc(F)cc2)s1	-0.52
CCOC(=O)C(C(=O)Nc1ccccc1)C1CCCCC1 (stereo not given)	0.245
Cc1cccc(N2CCN(C(=O)C(Cc3ccccc3)n3cccc3)CC2)c1C (stereo not given)	0.468
O=C(Nc1nnc(-c2ccc(Cl)cc2)o1)C1=COCCO1	2.01
COc1ccc(C)cc1NC(=O)C1CCC(CNc2c(N3CCOCC3)c(=O)c2=O)CC1 (stereo not given)	-0.105
O=C(NCCc1c[nH]c2ccccc12)c1c(Cl)nc2sccn12	1.35
Cc1c(-n2c(SCC(=O)O)nnc2-c2ccccc2Cl)c(=O)n(-c2ccccc2)n1C	-0.254
O=S(=O)(c1ccc(Cl)nc1)N(Cc1ccccc1)Cc1ccccc1	-0.613
O=C(Nn1c(O)c(C=C2N=c3ccccc3=N2)sc1=S)c1cccc(Cl)c1	0.0261
COc1cc(NC(=O)CN2CCN(c3ccccc3F)CC2)c(C)cc1[N+](=O)[O-]	0.159
CCOC(=O)CSc1nc(-c2ccccc2)cc(C(F)(F)F)n1	-0.182
Cc1ccc(C(C(=O)NC2CCCC2)N(Cc2ccc(F)cc2)C(=O)c2csnn2)o1 (stereo not given)	0.014
Nc1cccc(C(=O)Nc2ccco2)c1	0.211
CCCCCC(=O)NC(=S)NNC(=O)CC	0.0798
O=C(Nc1ccccc1N1CCOCC1)c1ccccc1NS(=O)(=O)c1ccc(F)c(F)c1	-0.0267
Cc1cc(C(=O)COC(=O)c2cccs2)c(C)n1-c1c(C)n(C)n(-c2ccccc2)c1=O	0.256
CC1=CC(C)=Nc2ccccc2N1	0.366
O=C(O)CC1(CC(=O)Nc2ccc3ccccc3c2)CCCCC1	-0.142
COc1ccccc1NC(=O)CCN1CC(C)OC(C)C1 (stereo not given)	-0.136
O=S(=O)(c1ccc(Br)cc1)c1nc(-c2ccccc2)oc1NCc1cccnc1	-0.264
Cc1n[nH]c(C)c1S(=O)(=O)N1CCCCCC1	0.35

— PubChem BioAssay AID488969 (Vanderbilt High Throughput Screening Facility, 2010)
